Experimental data as given in patent US9908927B2, “Single-chain trail-receptor agonist proteins” (AbbVie Inc., priority 2014, dated 2018).

Key:
[1] = tested on: CTG-0167 (NSCLC); assay: Patient-derived xenograft model CTG-0167; type: in vivo; settings: CTG-0167 (NSCLC) PDX, NSG female mice; 3 mkd dosed IP, Q2Dx5
Procedure: (§1) The effect of a TRAIL receptor agonist protein made up of two polypeptides having the amino acid sequence set forth in SEQ ID NO:19 on tumor growth was also evaluated in patient-derived xenograft models CTG-0069 (colorectal), CTG-0167 (NSCLC), CTG-0293 (pancreatic), CTG-0714 (sarcoma), CTG-0136 (esophageal), CTG-485 (gastric), and CTG-0785 (Ewing's sarcoma) implanted in NSG female mice (Champions Oncology; Hackensack, N.J.). Briefly, tumor fragments were propagated subcutaneously into the right hind flank of female NSG mice on study day 0. Administration of a TRAIL receptor agonist protein made up of two polypeptides having the amino acid sequence set forth in SEQ ID NO: 19 (3 mkd dosed IP, Q2Dx5) was initiated at the time of size match. Tumor volume was measured for the duration of the experiment until the mean tumor volume in each group reached an endpoint of >2000 mm^3 or 60 days.

[2] = tested on: CTG-0714 (sarcoma); assay: Patient-derived xenograft model CTG-0714; type: in vivo; settings: CTG-0714 (sarcoma) PDX, NSG female mice; 3 mkd dosed IP, Q2Dx5
Procedure: as §1

[3] = tested on: NCI-H2170; assay: Tumor cell viability, CellTiter-Glo; type: cell-based, human; settings: NCI-H2170 (NSCLC), 24 hours
Procedure: (§2) Tumor cells were seeded at 10,000 cells/well in 96-well plates in the recommended media containing 10% FBS and treated with a TRAIL receptor agonist protein made up of two polypeptides having the amino acid sequence set forth in SEQ ID NO: 19 for 24 hours at 37° C. in a humidified, 5% CO2 atmosphere. Cell viability was subsequently assessed using CellTiter-Glo® reagent as described by the manufacturer's instructions (Promega; Madison, Wis.). IC50 values were determined by non-linear regression analysis of the concentration response data normalized to non-treated control cells.

[4] = tested on: NCI-H2347; assay: Tumor cell viability, CellTiter-Glo; type: cell-based, human; settings: NCI-H2347 (NSCLC), 24 hours
Procedure: as §2

[5] = tested on: HCC38; assay: Tumor cell viability, CellTiter-Glo; type: cell-based, human; settings: HCC38 (BrCa), 24 hours
Procedure: as §2

[6] = tested on: HCC4006; assay: Tumor cell viability, CellTiter-Glo; type: cell-based, human; settings: HCC4006 (NSCLC), 24 hours
Procedure: as §2

[7] = tested on: OCI-AML3; assay: Tumor cell viability, CellTiter-Glo; type: cell-based, human; settings: OCI-AML3 (AML), 24 hours
Procedure: as §2

[8] = tested on: WSU-NHL; assay: Tumor cell viability, CellTiter-Glo; type: cell-based, human; settings: 24 hours
Procedure: as §2

[9] = tested on: Colo205; assay: Tumor cell viability, CellTiter-Glo; type: cell-based, human; settings: 24 hours
Procedure: as §2

[10] = tested on: HCC1569; assay: Tumor cell viability, CellTiter-Glo; type: cell-based, human; settings: HCC1569 (BrCa), 24 hours
Procedure: as §2

[11] = tested on: Jurkat; assay: Tumor cell viability, CellTiter-Glo; type: cell-based, human; settings: 24 hours
Procedure: as §2

[12] = tested on: MV4-11; assay: Tumor cell viability, CellTiter-Glo; type: cell-based, human; settings: MV4-11 (AML), 24 hours
Procedure: as §2

[13] = tested on: NCI-H1944; assay: Tumor cell viability, CellTiter-Glo; type: cell-based, human; settings: NCI-H1944 (NSCLC), 24 hours
Procedure: as §2

[14] = tested on: NCI-H460; assay: Tumor cell viability, CellTiter-Glo; type: cell-based, human; settings: NCI-H460 (NSCLC), 24 hours
Procedure: as §2

[15] = tested on: UKE-1; assay: Tumor cell viability, CellTiter-Glo; type: cell-based, human; settings: UKE-1 (AML), 24 hours
Procedure: as §2

[16] = Half-life determination in NMRI mice; type: in vivo
Procedure: Molecules A-D are each made up of two polypeptides covalently linked by interchain disulfide bonds. The number of glycosites and hinge cysteines (resulting in interchain disulfide bonds between proteins) were tested in order to determine the effect that altering these characteristics has on the half-life of these compounds.
Female NMRI mice were treated with 1.2 mg/kg bw and/or with 4 mg/kg bw of the specified compounds as a single intravenous bolus injection. Whole blood was collected before application (predose), and up to 168 hours after test item administration. Serum was prepared and samples were stored at −80° C. until determination of serum concentrations. Pharmacokinetic parameters were calculated using the mean serum concentrations and the pharmacokinetic evaluation program PK Solutions Version 2.0 for non-compartmental pharmacokinetic data analysis (Summit Research Services, Montrose, Colo.). PK Solutions is an automated, Excel-based application, which computes pharmacokinetic parameters from concentration-time data obtained from analysis of e.g. biological samples following intravenous or extra-vascular routes of administration. PK Solutions calculates results without presuming any specific compartmental model.
Quantitation of the test items in serum was performed with an ELISA-assay detecting the individual TRAIL-receptor agonists shown in Table 7 independent of a Strep-Tag being part of the molecules.

[17] = tested on: CTG-0785 (Ewing's sarcoma); assay: Patient-derived xenograft model CTG-0785; type: in vivo; settings: CTG-0785 (Ewing's sarcoma) PDX, NSG female mice; 3 mkd dosed IP, Q2Dx5
Procedure: as §1

[18] = tested on: subcutaneous Colo205 (colorectal) xenograft tumors; assay: Colo205 colorectal carcinoma xenograft model; type: in vivo; settings: SCID female mice, 0.3, 1, or 3 mkd dosed IV, QDx5 or IP, Q2Dx5 as indicated
Procedure: The effect of a TRAIL receptor agonist protein made up of two polypeptides having the amino acid sequence set forth in SEQ ID NO:19 on tumor growth was evaluated in subcutaneous Colo205 (colorectal), SKM-1 (acute myeloid leukemia), and H460LM (non-small cell lung) xenograft tumors implanted in SCID female mice (Charles Rivers Laboratories; Wilmington, Mass.). Briefly, human cancer cells were inoculated subcutaneously into the right hind flank of female SCID mice on study day 0. Administration of TRAIL receptor agonist protein of SEQ ID NO:19 (0.3, 1, or 3 mkd dosed IV, QDx5 or IP, Q2Dx5 as indicated) was initiated at the time of size match. Tumor volume was measured for the duration of the experiment until the mean tumor volume in each group reached an endpoint of >2000 mm^3 for Colo205 and SKM-1 or >2500 mm^3 for H460LM.

[19] = tested on: CTG-0069 (colorectal); assay: Patient-derived xenograft model CTG-0069; type: in vivo; settings: CTG-0069 (colorectal) PDX, NSG female mice; 3 mkd dosed IP, Q2Dx5
Procedure: as §1

IC50 [3]: 0.03016 µg/mL | IC50 [4]: 0.08106 µg/mL | IC50 [5]: 0.003 µg/mL | IC50 [6]: 0.40724 µg/mL | IC50 [7]: 1 µg/mL | IC50 [8]: 0.0316 µg/mL | IC50 ([9]; Colo205 (CRC)): 0.0013 µg/mL | IC50 [10]: 0.219 µg/mL | IC50 ([11]; Jurkat (ALL)): 0.00308 µg/mL | IC50 [12]: 0.31255 µg/mL | IC50 [13]: 4.06875 µg/mL | IC50 [14]: 0.03685 µg/mL | IC50 [15]: 0.20535 µg/mL
B1: SEQ ID NO: 19: made up of two polypeptides of SEQ ID NO: 19; three hinge cysteines, N297S aglycosylated CH2, glycosites at positions 168 and 337 (protein)
chain: QRVAAHITGTRGRSNTLSSPNSKNEKALGRKINSWESSRSGHSFLSNLHLRNGELVIHEKGFYYIYSQTYFRFQEEIKENTKNDKQMVQYIYKYTSYPDPILLMKSARNSCWSKDAEYGLYSIYQGGIFELKENDRIFVSVTNEHLIDMDHEASFFGAFLVGGSGSGNGSRVAAHITGTRGRSNTLSSPNSKNEKALGRKINSWESSRSGHSFLSNLHLRNGELVIHEKGFYYIYSQTYFRFQEEIKENTKNDKQMVQYIYKYTSYPDPILLMKSARNSCWSKDAEYGLYSIYQGGIFELKENDRIFVSVTNEHLIDMDHEASFFGAFLVGGSGSGNGSRVAAHITGTRGRSNTLSSPNSKNEKALGRKINSWESSRSGHSFLSNLHLRNGELVIHEKGFYYIYSQTYFRFQEEIKENTKNDKQMVQYIYKYTSYPDPILLMKSARNSCWSKDAEYGLYSIYQGGIFELKENDRIFVSVTNEHLIDMDHEASFFGAFLVGGPGSSSSSSSG[human IgG1 Fc with N297S (EU numbers) not written out]
modifications: homodimer
effect on tumor growth [1]: significant tumor growth inhibition | effect on tumor growth [2]: significant tumor growth inhibition | cell death / cell viability (FIG. 19) ([9]; Colo205 cells, increasing concentrations): induces cell death | cell death / cell viability (FIG. 19) ([11]; Jurkat cells, increasing concentrations): induces cell death | in vivo stability (as judged by compound half-life) ([16]; NMRI mice, comparison between Molecules A-D): enhanced when compared to Molecule A | Terminal Half-life 1.2 mg/kg i.v. ([16]; female NMRI mice, 1.2 mg/kg single intravenous bolus, serum, ELISA): 28.28 h | Terminal Half-life 4 mg/kg i.v. ([16]; female NMRI mice, 4 mg/kg single intravenous bolus, serum, ELISA): 33.94 h | effect on tumor growth [17]: significant tumor growth inhibition | effect on tumor growth [18]: significant tumor growth inhibition | effect on tumor growth [19]: significant tumor growth inhibition
